One block for each binder: values may come before it.
Tests used:
[1] = biological target: T1, sgp130Fc (fusion protein of soluble hgp130 to the Fc-part of an IgG antibody) (human, UniProt P40189 23-619); experiment: cell-based or functional assay
T1 sequence (looked up): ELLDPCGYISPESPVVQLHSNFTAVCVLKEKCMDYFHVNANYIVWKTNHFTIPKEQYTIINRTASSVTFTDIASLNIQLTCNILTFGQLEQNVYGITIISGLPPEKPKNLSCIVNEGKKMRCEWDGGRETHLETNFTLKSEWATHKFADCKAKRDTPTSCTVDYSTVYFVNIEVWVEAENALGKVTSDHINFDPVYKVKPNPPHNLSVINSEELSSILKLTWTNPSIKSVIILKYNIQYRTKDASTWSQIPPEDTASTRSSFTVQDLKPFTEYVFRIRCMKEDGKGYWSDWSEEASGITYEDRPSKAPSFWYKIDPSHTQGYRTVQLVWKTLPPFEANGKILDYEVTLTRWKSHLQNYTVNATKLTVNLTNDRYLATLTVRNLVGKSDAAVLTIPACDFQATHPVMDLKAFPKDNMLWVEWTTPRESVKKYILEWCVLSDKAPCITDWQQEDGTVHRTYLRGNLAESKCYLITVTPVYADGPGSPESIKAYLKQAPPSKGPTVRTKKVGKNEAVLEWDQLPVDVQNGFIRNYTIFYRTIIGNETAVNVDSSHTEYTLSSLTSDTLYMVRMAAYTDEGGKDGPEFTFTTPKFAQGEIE

[2] = biological target: T1, sgp130Fc (fusion protein of soluble …); experiment: SPR; Biacore X100, Protein A sensor chip; sgp130Fc captured via its Fc (200-300 RU per cycle); hyper-cytokines injected 30 uL/min, 120 s, dissociation 300 s (200-0.20 nM cHIL-6, 25-0.05 nM HIL-6, 50-0.62 nM HIL-11); 1:1 binding model; conditions: both partners purified
[3] = biological target: T2, recombinant his-tagged soluble human IL-11R (human, UniProt Q14626 24-370); experiment: SPR; Biacore X100, multi-cycle, NTA sensor chip; his-tagged soluble hIL-6R or hIL-11R immobilised (100-250 RU per cycle); cytokines injected 133.33 to 0.183 nM, 30 uL/min, 180 s, dissociation 800 s; 25 °C, PBS with 0.05% P20 and 50 uM EDTA; two-state reaction fit; conditions: both partners purified
T2 construct: soluble human IL-11 α-receptor; In functional rows this id also stands for hIL-11R expressed on Ba/F3 cells (whole receptor); the readout says so; also called sIL-11R; shIL-11R; source: bought: R&D Systems (cat no. 8895-MR)
T2 sequence (looked up): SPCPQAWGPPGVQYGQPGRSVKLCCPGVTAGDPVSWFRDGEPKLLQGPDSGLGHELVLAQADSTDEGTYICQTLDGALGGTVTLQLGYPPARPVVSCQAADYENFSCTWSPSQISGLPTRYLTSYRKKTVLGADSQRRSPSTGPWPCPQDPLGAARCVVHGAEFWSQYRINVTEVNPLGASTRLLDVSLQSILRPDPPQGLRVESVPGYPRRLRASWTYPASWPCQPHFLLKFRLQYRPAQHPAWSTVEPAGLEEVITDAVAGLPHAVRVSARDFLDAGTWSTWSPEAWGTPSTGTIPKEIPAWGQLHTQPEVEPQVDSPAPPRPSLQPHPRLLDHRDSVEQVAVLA

[4] = biological target: T2, recombinant his-tagged soluble human …; experiment: as above; conditions: both partners purified; remark: listed apart in the source

- EC50 of proliferation of Ba/F3-hgp130 cells (hgp130 on cells), 72 h [1]: 46.6 pM
- Kd [2]: 244 pM
- koff [2]: 0.000347 s⁻¹
- kon [2]: 1.48e+06 M⁻¹ s⁻¹
B1: Hyper IL-6 (fusion protein of human sIL-6R and human IL-6), Twin-Strep-tagged (other)
chain: LAPRRCPAQEVARGVLTSLPGDSVTLTCPGVEPEDNATVHWVLRKPAAGSHPSRWAGMGRRLLLRSVQLHDSGNYSCYRAGRPAGTVHLLVDVPPEEPQLSCFRKSPLSNVVCEWGPRSTPSLTTKAVLLVRKFQNSPAEDFQEPCQYSQESQKFSCQLAVPEGDSSFYIVSMCVASSVGSKFSKTQTFQGCGILQPDPPANITVTAVARNPRWLSVTWQDPHSWNSSFYRLRFELRYRAERSKTFTTWMVKDLQHHCVIHDAWSGLRHVVQLRAQEEFGQGEWSEWSPEAMGTPWTESRSPPAGGGSGG[sequence of about 200 residues omitted]

- EC50 of proliferation of Ba/F3-hgp130 cells (hgp130 on cells), 72 h [1]: 194 pM
- Kd [2]: 1240 pM
- koff [2]: 0.000114 s⁻¹
- kon [2]: 92300 M⁻¹ s⁻¹
B2: chimeric Hyper-cytokine IL-6/sIL-11R (cHIL-6), Twin-Strep-tagged (other)
chain: SSPCPQAWGPPGVQYGQPGRSVKLCCPGVTAGDPVSWFRDGEPKLLQGPDSGLGHELVLAQADSTDEGTYICQTLDGALGGTVTLQLGYPPARPVVSCQAADYENFSCTWSPSQISGLPTRYLTSYRKKTVLGADSQRRSPSTGPWPCPQDPLGAARCVVHGAEFWSQYRINVTEVNPLGASTRLLDVSLQSILRPDPPQGLRVESVPGYPRRLRASWTYPASWPCQPHFLLKFRLQYRPAQHPAWSTVEPAGLEEVITDAVAGLPHAVRVSARDFLDAGTWSTWSPEAWGTPSTGGGSGG[sequence of about 200 residues omitted]

- Kd [3]: 22600 pM
- Kd [4]: 22300 pM
- kd1 (two-state fit, first step) [4]: 0.0129 s⁻¹
- kd2 (two-state fit, second step) [4]: 0.000857 s⁻¹
B3: Twin-strep-tagged human IL-6 (ligand)
chain: not shown
notes: human interleukin 6 (IL-6); Secreted into the culture supernatant; also called hIL-6ts; hIL-6

— article PMC11796321, “Interleukin‐11 receptor is an alternative α‐receptor for interleukin‐6 and the chimeric cytokine IC7” (The Febs Journal, 2024)
